In the supplement of paper PMC3334620:
In all, about 33,000 sequences were measured (“E-score (-0.5 to 0.5)”: median about -0.032, highest 2% from about 0.36 on). The list shows a part of the results.

molecular target: T1, Sko1 (UniProt Q02100); assay: PBM E-score (8-mer binding enrichment) (E-score (-0.5 to 0.5)); higher = stronger / more preferred TF binding; most listed sequences are background and not binding sites; conditions: protein concentration: 200 nM; construct: GST-full length
T1 sequence: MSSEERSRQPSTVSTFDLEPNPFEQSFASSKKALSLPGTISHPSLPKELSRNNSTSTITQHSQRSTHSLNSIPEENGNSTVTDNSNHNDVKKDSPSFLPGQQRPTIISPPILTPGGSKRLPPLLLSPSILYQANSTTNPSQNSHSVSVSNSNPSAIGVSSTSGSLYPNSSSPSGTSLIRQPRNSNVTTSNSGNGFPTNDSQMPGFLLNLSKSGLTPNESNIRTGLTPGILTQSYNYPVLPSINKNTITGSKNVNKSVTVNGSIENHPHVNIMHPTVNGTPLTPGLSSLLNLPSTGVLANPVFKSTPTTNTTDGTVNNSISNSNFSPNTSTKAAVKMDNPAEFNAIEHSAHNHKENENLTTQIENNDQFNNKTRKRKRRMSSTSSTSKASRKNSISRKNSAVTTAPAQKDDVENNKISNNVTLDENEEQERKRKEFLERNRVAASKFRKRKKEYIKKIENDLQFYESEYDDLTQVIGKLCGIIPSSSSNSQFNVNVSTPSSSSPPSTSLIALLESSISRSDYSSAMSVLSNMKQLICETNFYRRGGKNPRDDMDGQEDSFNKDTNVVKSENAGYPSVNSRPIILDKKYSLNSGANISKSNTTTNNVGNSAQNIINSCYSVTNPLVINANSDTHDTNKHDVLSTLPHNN
Procedure, shortened: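 Universal all-10-mer Agilent arrays, double-stranded by primer extension on fresh or once-stripped slides, were probed with about 100-200 nM GST-tagged yeast transcription factors made by PURExpress. Fluorescent anti-GST detected bound protein, and masliner normalised the scans. E-scores from the Universal PBM Analysis Suite were given to each ungapped eight-base word pooled with its reverse complement.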

First: GGAACGCC
Second: ACGGCCTG
The “PBM E-score” value of the first is lower: -0.256 for the first, -0.186 for the second.

First: AACACCGC
Second: AAAATCAA
The “PBM E-score” value of the first is lower: -0.196 for the first, 0.0427 for the second.

First: AGTTCGGA
Second: ATCACTAC
The “PBM E-score” value of the first is lower: -0.198 for the first, 0.162 for the second.

Compared with TGTCTTAA, ATTTGCAA is higher in “PBM E-score” value: -0.00601 for the first, 0.122 for the second.

Going from CTGGTCTC to GAACTGAC, the “PBM E-score” value rises from -0.342 to 0.0788.

Compared with ACCCATTG, ACGTTGCC is higher in “PBM E-score” value: -0.145 for the first, 0.185 for the second.

Compared with GCAACCAC, AGTTGGAG is lower in “PBM E-score” value: -0.0517 for the first, -0.0727 for the second.

First: CCACTAAA
Second: ACAACGCA
The “PBM E-score” value of the first is lower: -0.0135 for the first, 0.205 for the second.

First: AATACCCC
Second: ATTTGATC
The “PBM E-score” value of the first is lower: -0.21 for the first, -0.0325 for the second.

Going from CGCCTCAG to CCTAGAAC, the “PBM E-score” value rises from -0.182 to -0.101.

Going from AAAACCAG to ATGGAATA, the “PBM E-score” value rises from -0.0997 to 0.131.

First: CCTATCTA
Second: ATCCGTCG
The “PBM E-score” value of the first is higher: -0.0869 for the first, -0.197 for the second.

First: TAATCCCA
Second: GATTGGAC
The “PBM E-score” value of the first is higher: -0.00312 for the first, -0.167 for the second.

Compared with ACGGTGAT, AGCAACAA is higher in “PBM E-score” value: -0.137 for the first, 0.0966 for the second.

Compared with CAACGCGC, AATATCTC is lower in “PBM E-score” value: 0.15 for the first, 0.0336 for the second.

Going from ACTCATTA to ACAGAGCA, the “PBM E-score” value falls from 0.123 to -0.0386.

First: GTCCTCGA
Second: ATATTGCG
The “PBM E-score” value of the first is lower: 0.121 for the first, 0.278 for the second.

Compared with ATTTATGC, GACAAAAC is higher in “PBM E-score” value: 0.092 for the first, 0.118 for the second.

Going from CTAAGGAC to TTAAGTAA, the “PBM E-score” value rises from -0.166 to 0.154.

Compared with AGTGTATG, AGGCGTCA is higher in “PBM E-score” value: 0.0549 for the first, 0.256 for the second.

First: ACGCTTAG
Second: AGACTACA
The “PBM E-score” value of the first is higher: 0.103 for the first, -0.158 for the second.

First: AATCGTCT
Second: CAGGTTCG
The “PBM E-score” value of the first is higher: 0.0851 for the first, -0.123 for the second.

Compared with ATTCCGAG, AAGCATTC is higher in “PBM E-score” value: -0.0886 for the first, 0.0283 for the second.

Compared with CGGGGACC, CCAGCTCG is higher in “PBM E-score” value: -0.306 for the first, -0.129 for the second.

Compared with TCATACAA, ATATTCTG is lower in “PBM E-score” value: 0.128 for the first, 0.0884 for the second.

First: CTATTGAA
Second: CGGAGGCC
The “PBM E-score” value of the first is higher: 0.0932 for the first, -0.359 for the second.

First: CACTGGCA
Second: AATACGTC
The “PBM E-score” value of the first is lower: -0.158 for the first, 0.464 for the second.

Going from CTTACGCA to CTAAGGTA, the “PBM E-score” value falls from 0.427 to -0.0873.

First: ATTACATC
Second: ATTAGCGA
The “PBM E-score” value of the first is higher: 0.403 for the first, 0.151 for the second.

First: ACTTGTCC
Second: AGATAAGG
The “PBM E-score” value of the first is lower: -0.107 for the first, -0.0819 for the second.

Compared with GGTAGCTA, TAGTGACA is higher in “PBM E-score” value: -0.134 for the first, 0.202 for the second.

Going from AGGTATAT to ACAAGCCT, the “PBM E-score” value falls from 0.184 to -0.135.

First: GTCTGCAA
Second: AGGGGATC
The “PBM E-score” value of the first is higher: 0.0812 for the first, -0.259 for the second.

Compared with ATTGTCAG, AGCGACCC is lower in “PBM E-score” value: 0.146 for the first, -0.277 for the second.

Going from ACTGTACC to GAGAGACA, the “PBM E-score” value falls from -0.0674 to -0.329.

First: CGTAATCC
Second: AGCCGCAG
The “PBM E-score” value of the first is higher: 0.405 for the first, -0.223 for the second.

Going from GACGAATA to CGTACAGA, the “PBM E-score” value falls from 0.297 to 0.249.

Going from AAGGAATG to ATCTTCAA, the “PBM E-score” value rises from -0.108 to 0.197.

Compared with AATATGAG, ATCTAGCC is lower in “PBM E-score” value: 0.146 for the first, -0.196 for the second.

First: ACATTGAA
Second: CAGACTCG
The “PBM E-score” value of the first is higher: 0.166 for the first, -0.167 for the second.

Going from ACACGCTC to GGGGCGCA, the “PBM E-score” value falls from 0.0423 to -0.146.

First: CTTGCCGA
Second: ATAACCTA
The “PBM E-score” value of the first is lower: -0.104 for the first, 0.0966 for the second.

Going from ATTAGCTC to CCGCACCG, the “PBM E-score” value falls from 0.0776 to -0.0369.
